# Records with an inconclusive call do not appear. Unless noted, the call rests on the fitted dose curve; in most records, active means well fitted curve in the direction sought with a large enough effect in the repeat runs; inconclusive means weak or mixed curves; inactive means no such curve, though single readings can be large; an effect the other way counts as inactive or inconclusive. A number of entries come with more than one value. Only these are listed. The source may hold further records. Values that stand side by side repeat one measurement in other runs, samples, wells, individuals or studies. More than one record can exist for a structure, and the calls need not agree. Brackets tell where a record comes from. The letters are not those of the source and start again with each entry.
# Columns and labels:
# [1] = qHTS assay for small molecule disruptors of the mitochondrial membrane potential (AID 720635); details: HepG2 mitochondrial membrane potential, Mito-MPS dye ratio
# How it was run: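 Mitochondrial membrane potential tracked with Mito-MPS dye, red aggregates (ex 540/em 590 nm) against green monomers (ex 490/em 535 nm). Compound treatment 1 hr at 37C, dye 30 min in HepG2.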
# [2] = biological target: Androgen receptor (Homo sapiens) (UniProt P10275); assay: qHTS assay to identify small molecule agonists of the androgen receptor (AR) signaling pathway using the MDA cell line (AID 743040; further: nearly all actives have a fitted effect of over 20% in size); details: MDA-kb2 AR-luc cells, MMTV luciferase, 16 h; series mostly up to 70.3 µM
# Sequence of UniProt P10275 (P10275 whole entry, looked up): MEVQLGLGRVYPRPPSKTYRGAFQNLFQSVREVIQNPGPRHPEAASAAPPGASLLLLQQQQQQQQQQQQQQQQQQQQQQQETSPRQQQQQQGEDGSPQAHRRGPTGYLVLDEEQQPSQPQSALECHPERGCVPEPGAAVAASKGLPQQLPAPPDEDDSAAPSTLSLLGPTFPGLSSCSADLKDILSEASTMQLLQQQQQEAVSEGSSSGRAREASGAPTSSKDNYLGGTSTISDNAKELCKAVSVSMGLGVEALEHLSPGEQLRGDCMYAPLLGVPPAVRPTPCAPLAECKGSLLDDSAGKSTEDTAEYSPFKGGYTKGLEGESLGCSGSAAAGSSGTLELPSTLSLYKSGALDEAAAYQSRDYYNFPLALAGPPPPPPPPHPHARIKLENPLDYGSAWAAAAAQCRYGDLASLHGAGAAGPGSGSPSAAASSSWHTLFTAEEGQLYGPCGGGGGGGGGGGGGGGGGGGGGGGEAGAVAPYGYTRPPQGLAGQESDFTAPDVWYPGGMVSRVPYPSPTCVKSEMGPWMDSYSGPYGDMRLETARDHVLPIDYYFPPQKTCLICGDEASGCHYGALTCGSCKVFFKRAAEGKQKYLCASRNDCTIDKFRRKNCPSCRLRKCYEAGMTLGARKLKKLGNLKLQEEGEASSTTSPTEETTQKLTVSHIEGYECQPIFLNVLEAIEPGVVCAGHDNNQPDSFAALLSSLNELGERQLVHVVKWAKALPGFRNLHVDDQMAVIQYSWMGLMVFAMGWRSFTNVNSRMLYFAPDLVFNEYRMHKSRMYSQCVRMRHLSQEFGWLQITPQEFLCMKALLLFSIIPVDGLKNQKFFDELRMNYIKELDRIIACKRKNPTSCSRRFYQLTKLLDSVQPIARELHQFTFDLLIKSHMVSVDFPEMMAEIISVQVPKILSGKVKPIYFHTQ
# [3] = qHTS assay to identify small molecule antagonists of the androgen receptor (AR) signaling pathway using the MDA cell line - cell viability counter screen (AID 743041; further: nearly all actives have a fitted effect of over 45% in size); details: MDA-kb2 viability, CellTiter-Fluor, 16 h, cells co-treated with R1881 androgen agonist; series mostly up to 70.3 µM
# How it was run: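 Cells were plated at 3,000 per well and left 5 h. Compounds in DMSO were then pinned in, followed by R1881. After 16 h at 37C, CellTiter-Fluor fluorescence gave viability.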
# [4] = qHTS assay to identify small molecule antagonists of the peroxisome proliferator-activated receptor gamma (PPARg) signaling pathway - cell viability counter screen (AID 743194); details: PPARg-bla HEK293H viability, CellTiter-Glo luminescence, 17 h, co-treated with 50 nM rosiglitazone; series mostly up to 62.6 µM; further: nearly all actives have a fitted effect of over 55% in size
# How it was run: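 Viability was measured as CellTiter-Glo luminescence in GeneBLAzer PPARg UAS-bla HEK293H cells. These cells had been exposed 17 h at 37 C to compounds together with rosiglitazone at 50 nM final, with the beta-lactamase readout taken in the same wells.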
# [5] = qHTS assay to identify small molecule antagonists of the constitutive androstane receptor (CAR) signaling pathway - cell viability counter screen (AID 1224837); details: HepG2-CYP2B6-hCAR viability, CellTiter-Fluor, 23 h, co-treated with 50 nM CITCO; series mostly up to 92.4 µM; further: nearly all actives have a fitted effect of over 45% in size
# How it was run: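 HepG2-CYP2B6-hCAR cells, 2500/well, 4 hr pre-incubation; compound titration, 15 conc.; CITCO 50 nM final; 23 hr, 37 C/5% CO2; CellTiter-Fluor, fluorescence intensity.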
# [6] = qHTS RealTime-Glo MT Cell Viability Assay in HEK293 cells - 0 hour (AID 1224880); details: RealTime-Glo luminescence; series mostly up to 35.3 µM; further: nearly all actives have a fitted effect of over 45% in size
# How it was run: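 Cells were seeded together with NanoLuc luciferase and a prosubstrate that viable cells reduce to a luciferase substrate. After a 5 h incubation at 37 C/5% CO2, compounds were added and luminescence was measured repeatedly during 40 h of treatment.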
# [7] = qHTS assay to identify small molecule agonists of the sonic hedgehog signaling (Shh) pathway (AID 1259368; calls by dose curve; further: nearly all actives have a fitted effect of over 15% in size); details: NIH/3T3 Gli1-Luc reporter, luciferase, 24 h; series mostly up to 92.4 µM
# How it was run: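 3T3Gli1-Luc (NIH/3T3 clone, stable Gli1-Luc); 4 hr pre-incubation, then cpd in DMSO 24 hr, 37 C/5% CO2; luciferase reagent 30 min RT; luminescence.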
# [8] = qHTS assay to identify small molecule antagonists of the progesterone receptor (PR) signaling pathway - cell viability counter screen (AID 1346798); details: PR-UAS-bla HEK293T viability, CellTiter-Glo luminescence, 16 h; series mostly up to 42.5 µM; further: nearly all actives have a fitted effect of over 50% in size
# How it was run: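 Counter screen for cytotoxicity: viability of PR-UAS-bla HEK293T cells was measured with CellTiter-Glo luminescence following 16 hr compound exposure in the presence of R5020.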
# [9] = qHTS assay to identify small molecule antagonists of the TGF-beta/Smad signaling pathway - cell viability counter screen (AID 1346824); details: SBE-bla HEK293T viability, CellTiter-Glo luminescence; series mostly up to 35.3 µM; further: nearly all actives have a fitted effect of over 50% in size
# How it was run: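 Cytotoxicity counter-screen run in the same wells as the beta-lactamase Smad reporter read: CellTiter-Glo luminescence after 30 min at room temperature. HEK 293T SBE-bla cells had 5 hr compound exposure at 37 C with TGF-beta1 (0.25 ng/mL stock).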
# Potency means the concentration at half of the fitted maximal effect.
smiles,measurement,setting,value
Cc1cc2nc3c(=O)[nH]c(=O)nc-3n(C[C@H](O)[C@H](O)[C@H](O)CO)c2cc1C,Potency,[1],"active: 11.9, 10.6, 3.4, 3.58 µM [separate samples]"
Cc1ccc2c(n1)Oc1ccc(C(C)C(=O)OCC(=O)N(C)C)cc1C2 (configuration not stated),Potency,[2],active: 26.6 µM [sample A] and inactive [sample B]
O=C(Nc1ccc([N+](=O)[O-])cc1Cl)c1cc(Cl)ccc1O,Potency,[3],inactive [sample A] and active: 1.54 µM [sample B]
Cc1ccc(C(=O)c2cc(O)c(O)c([N+](=O)[O-])c2)cc1,Potency,[4],active: 19.5 µM [sample A] and inactive [sample B]
CC(=O)O[C@]1(C(C)=O)CC[C@H]2[C@@H]3C=C(Cl)C4=CC(=O)[C@@H]5C[C@@H]5[C@]4(C)[C@H]3CC[C@@]21C,Potency,[4],active: 54.9 µM [sample A] and inactive [sample B] and inactive [sample C]
O=C(c1ccccc1)c1ccc(O)cc1O,Potency,[5],active: 62.3 µM [sample A] and inactive [sample B]
O=C1OC2(c3cc(Br)c(O)c(Br)c3Oc3c2cc(Br)c(O)c3Br)c2c(Cl)c(Cl)c(Cl)c(Cl)c21,Potency,[6],active: 24.6 µM [sample A] and inactive [sample B]
CC(C)Oc1ccc2c(=O)c(-c3ccccc3)coc2c1,Potency,[7],inactive [sample A] and active: 5.96 µM [sample B]
O=C(/C=C/C=C/c1ccc2c(c1)OCO2)N1CCCCC1,Potency,[7],inactive [sample A] and active: 3.86 µM [sample B]
CC(=O)Oc1ccccc1C(=O)Nc1ncc([N+](=O)[O-])s1,Potency,[8],active: 39.3 µM [sample A] and inactive [sample B]
Brc1cc(Oc2cc(Br)c(Br)c(Br)c2Br)c(Br)c(Br)c1Br,Potency,[8],active: 34.5 µM [sample A] and inactive [sample B]
Cc1c(C(N)=O)cc([N+](=O)[O-])cc1[N+](=O)[O-],Potency,[9],active: 4.9 µM [sample A] and inactive [sample B]

# Source: PubChem BioAssay (Tox21)
